Read counts are not given, so values of variants with three or more changes are uncertain.
B1: CPEB3 Ribozyme (parent)
chain: UAACAGGGGGCCACAGCAGAAGCGUUCACGUCGCAGCCCCUGUCAGAUUCUGGUGAAUCUGCGAAUUCUGCUGUAUAUCUC

Variants of: B1
Assay: self-cleavage, relative activity (ratio to wild type); higher = more cleavage; in vitro, sequencing
Procedure, shortened: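 Barcoded CPEB3 ribozyme mutants, produced by rounds of error-prone PCR, self-cleaved while being transcribed with T7 RNA polymerase for 5 hours at 37°C and during a subsequent 15 min DNase I step before EDTA was added. Sequencing of template-switched cDNA on Illumina gave cleaved and total reads, and DNA sequencing assigned barcodes to variants. Each variant's relative activity is its cleaved/total read fraction divided by the unmutated ribozyme's fraction, averaged across three batches. A variant needed a minimum of 5 reads.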

Question: With UAACUGGGGGCCUCAGCUGAAGCGUUCACGUCGCAGCCCCUGCCAGAUUCCGGUGAAUCUGCGAAUUCUGCUGUAUACCUC as the variant, how does the self-cleavage read?
Answer: 0.22

Question: For UAACUGGGGGCCGCAGCAGAAGCGUUCGCGUCGCAGCCCCUGUCAGAUUCUGGCGAACUUGCGAACUCUGCUGUAUAUCUC, which self-cleavage is on record?
Answer: 0.08

Question: For UAACUGGGGGCCACGGCAGAAGCGUUCACGUCGCAGUCCCAGUCAGAUUCUGGUGAAUCUGCGAAUUCUGCUGUAUAUCUC, which self-cleavage is on record?
Answer: 0.54

Question: With UAACUGGGGGCCGCUGCAGAAGCGUUCACGUCGCAGCCCCUGUCAGAUUCUGGUGAACCUGCGGAUUCUGCUGUAUAUCUC as the variant, how does the self-cleavage read?
Answer: 0.11

Question: With UAACUGGGGGCCUCAGCGGAAGCGUUCACGUCGCAGCCCCUGUCAGAUUCUGGUGAAUCUGCGAAUUCUGCUGUUUAUCUC as the variant, how does the self-cleavage read?
Answer: 1.11

Question: For UAACUGGGGGCCUCAGCAGAAGCGCUCACGUCGCAGCCCCUGUCAGAUUCUGGUGAAUCUGCGGAUUCUGCUGUAUAUCUC, which self-cleavage is on record?
Answer: 0.11

Question: With UAACGGGGGGCCACAGCAGAAGCGUUCACGUCGCAGCCCCUGUCAGAUUCUGGUGAAUCUGCGAAUCCUGCUGUAUACCUC as the variant, how does the self-cleavage read?
Answer: 0.11

Question: Which self-cleavage does the source give for UAACUGGGGGCCUCAGCAGAAGCGUUCACGUUGCUGCCCCUGUCAGAUACUGGUGAAUCUGCGAAUUCUGCUGUAUAUCUC here?
Answer: 0.17

Question: With UAACUGGGGGCCGCAGCAGAAGCGUUCACGCCGCAGCCCCUGUCAGAUUCUGGUGAAUCUGCGAAUUCUGCUGUAUAUCUC as the variant, how does the self-cleavage read?
Answer: 0.67

Question: With UAACUGGGGGCCACCGCAGAAGCGUUCACGUCACAGCCCCUGUCGGAUUCUGGUGUAUCUGCGAAUUCUGCUGUAUAUCUC as the variant, how does the self-cleavage read?
Answer: 0.1

Question: With UAACUGGGGGCCGCAGCAGAAGCGUUCACGUCGCAGCCCCUGUCAGAUUCUGGUGAACCUGCGAAUUCUGCCGUAUAUCUC as the variant, how does the self-cleavage read?
Answer: 0.19

Question: Which self-cleavage does the source give for UAACUGGGGGCCACGGCAGAAGCGUUAACGUCGCAGCCCCUGUCAGAUUCUGGUGAAUCUGCGAAUUCUGCUGUAAAUCUC here?
Answer: 0.09

Question: For UAACUGGGGGCCACGGCAGAAGCAUUCACGUCGCAGCCCCUGUCAGAUUCCGGUGAAUCUGCGAAUUCUGCUGUAUAUCUC, which self-cleavage is on record?
Answer: 0.34

Question: For UAACGGGGGGCCACAGCAGAAGCGUUCACGUCGCAGCCCCUGUCAGAUUCUGGUGAAUCUGCGAAUUCUGCCGUAUACCUC, which self-cleavage is on record?
Answer: 0.91

Question: With UAACGGGGGGCCACAGCAGAAGCGUUCACGUCGCAGCCCCUGUCAGAUUCUGGUGAAUCUGCGAAUUCCGCUGUAUAUCCC as the variant, how does the self-cleavage read?
Answer: 0.39

Question: Which self-cleavage does the source give for UAACUGGGGGCCGCAGCAGAAGCGUUCACGUCGCGGCCCCUGUCAGAUUCUGGUGAAUCUGCGAAUUCUGCUGUAUAUCUC here?
Answer: 0.66

Question: For UAACUGGGGGCCGCAGCAGGAGCGUUCACGUCACAGCCCCUGUCAGAUUCUGGUGUAUCUGCGAAUGCUGCUGUAUGUCUC, which self-cleavage is on record?
Answer: 0.06

Question: With UAACUGGGGGCCUCAGCAGAAGCGUACACGUCGCAGCCCUUGUCAGAUUCUGGUGAACCUGCGAAUCCUGCGGUAUAUCUC as the variant, how does the self-cleavage read?
Answer: 0.06

Question: Which self-cleavage does the source give for UAACUGGGGGCCCCAGCAGAAGCGUCCACGUCGCAGCCCCUGUCAGAUUCUGGUGAAUCUGCGAAUUCCGCAGUAUAUCUC here?
Answer: 0.15

Question: With UAACGGGGGGCCACAGCAGAAGCGUUCACGUCGCAGCCCCUGUCAGAUUCUGGUGAAUCUGCGAAUUCUGCCGAAUACCUC as the variant, how does the self-cleavage read?
Answer: 0.91

Question: Which self-cleavage does the source give for UAACUGGGGGCCGCAGCAGAAGCGUUCAUGUCGCAGCCCCUGUCAGAUUCUUGUGAAUCUGCGAAUUCUGCUGUAUAUCUC here?
Answer: 0.29

Question: For UAACUGGGGGCCUCAGCAGUUGUGUUCAUGUCGCAGCCCCUGUCUGAUUCUGGUGAAUCUGCGAAUUCUGCUGUAUAUCUC, which self-cleavage is on record?
Answer: 0.14

Question: With UAACGGGGGGCCACAGCAGAAGCGUUCACGUCGCAGCCCCUGUCAGAUUCUGGUGAAUCUGCGAAUUCAGCUGUAUACCUC as the variant, how does the self-cleavage read?
Answer: 0.17

Question: Which self-cleavage does the source give for UAACUGGGGGCCACGGCAGAAGCGUUCACGUCGCAGCCCCUGUCAGAUUCUGGUGAAACUGCGAAUUCUGCUGUAUAACUC here?
Answer: 0.47

Question: Which self-cleavage does the source give for UAACGGGGGGCCACAGCAGAAGCGUUCACGUCGCAGCCCCUGUCAGAUUCUGGUGAAUCUGCGAAUUCUGCUGCAUAUCCC here?
Answer: 1.07

Question: With UAACUGGGGGCCACGGCAGAAGCGUUCACGUCGCAGCCCCUGUCAGAUUCUGGUGAAUCUGCGAAUUCUGCCGUAUAUCUC as the variant, how does the self-cleavage read?
Answer: 1.15

Question: Which self-cleavage does the source give for UAACGGGGGGCCACAGCAGAAGCGUUCACGUCGCAGCCCCUGUCAGAUUCUGGUGAAUCUGCGAAUUCUGCCGUGCAUCUC here?
Answer: 0.63

Question: Which self-cleavage does the source give for UAACUGGGGGCCACGGCAGAAGCGUUCUCGUCGCUGCCCCAGUCAGAUUCUGGCGAAUCUGCGAAUACUGCUGUAUAUCUC here?
Answer: 0.13

Question: With UAACUGGGGGCCUCAGCAGAAGCGUUCACGUCGCAGCCCCUGUCAGAUCCUGUUGAAUCUGCGAAUUCUGCUGUAUAACUC as the variant, how does the self-cleavage read?
Answer: 1.15

Question: For UAACUGGGGGCCACUGCAGAGGCGUCCACGUCGCAGCCCCUGUCAGAUUCUGGUGAAUCUGCGAAUUCUGCUGUACAUCUU, which self-cleavage is on record?
Answer: 0.29

Question: With UAACGGGGGGCCACAGCAGAAGCGUUCACGUCGCAGCCCCUGUCAGAUUCUGGUGAAUCUGCGAAUUCUGCCGUAUAUUCC as the variant, how does the self-cleavage read?
Answer: 0.7

Question: Which self-cleavage does the source give for UAACUGGGGGCCACUGCAGAAGCGUUCACGUCGCUGCCCCUGUCAGAUUCUGCUGAACCUGCGAAUUCUGCUGUAUAUCUC here?
Answer: 0.22

Question: For UAACUGGGGGCCGCAGGUGAAGCGCCCACGUCGCAGCCCCUGUCAGAUUCUGGUGAAUCUGCGAAUUCUGCUGUAUAUCUC, which self-cleavage is on record?
Answer: 0.45

Question: Which self-cleavage does the source give for UAACUGGGGGCCGCAGCAGAAGCGCCCACGUCGCAGCCCCUGUCAGAUUCUGGUGAAUCUGCGAAUUCUGCUGUAUAUUUC here?
Answer: 0.71

From the RNAGym collection of RNA variant scans (doi:10.1093/nar/gkz1192)
